Measurements: paper PMC4336329 (PLoS ONE, 2015)
Hit rate of the full screen: of about 310,000 compounds, about 2,200 (0.71%) showed an effect of 50% or more. The effect is printed as a negative number. The list shows a part of the results.

Biological target: human ether-à-go-go-related gene (hERG) potassium channel (human, UniProt Q12809)
Experiment: primary screen, population patch clamp on CHO cells stably expressing hERG

human ether-à-go-go-related gene (hERG) potassium channel, sequence (Q12809 whole entry, looked up): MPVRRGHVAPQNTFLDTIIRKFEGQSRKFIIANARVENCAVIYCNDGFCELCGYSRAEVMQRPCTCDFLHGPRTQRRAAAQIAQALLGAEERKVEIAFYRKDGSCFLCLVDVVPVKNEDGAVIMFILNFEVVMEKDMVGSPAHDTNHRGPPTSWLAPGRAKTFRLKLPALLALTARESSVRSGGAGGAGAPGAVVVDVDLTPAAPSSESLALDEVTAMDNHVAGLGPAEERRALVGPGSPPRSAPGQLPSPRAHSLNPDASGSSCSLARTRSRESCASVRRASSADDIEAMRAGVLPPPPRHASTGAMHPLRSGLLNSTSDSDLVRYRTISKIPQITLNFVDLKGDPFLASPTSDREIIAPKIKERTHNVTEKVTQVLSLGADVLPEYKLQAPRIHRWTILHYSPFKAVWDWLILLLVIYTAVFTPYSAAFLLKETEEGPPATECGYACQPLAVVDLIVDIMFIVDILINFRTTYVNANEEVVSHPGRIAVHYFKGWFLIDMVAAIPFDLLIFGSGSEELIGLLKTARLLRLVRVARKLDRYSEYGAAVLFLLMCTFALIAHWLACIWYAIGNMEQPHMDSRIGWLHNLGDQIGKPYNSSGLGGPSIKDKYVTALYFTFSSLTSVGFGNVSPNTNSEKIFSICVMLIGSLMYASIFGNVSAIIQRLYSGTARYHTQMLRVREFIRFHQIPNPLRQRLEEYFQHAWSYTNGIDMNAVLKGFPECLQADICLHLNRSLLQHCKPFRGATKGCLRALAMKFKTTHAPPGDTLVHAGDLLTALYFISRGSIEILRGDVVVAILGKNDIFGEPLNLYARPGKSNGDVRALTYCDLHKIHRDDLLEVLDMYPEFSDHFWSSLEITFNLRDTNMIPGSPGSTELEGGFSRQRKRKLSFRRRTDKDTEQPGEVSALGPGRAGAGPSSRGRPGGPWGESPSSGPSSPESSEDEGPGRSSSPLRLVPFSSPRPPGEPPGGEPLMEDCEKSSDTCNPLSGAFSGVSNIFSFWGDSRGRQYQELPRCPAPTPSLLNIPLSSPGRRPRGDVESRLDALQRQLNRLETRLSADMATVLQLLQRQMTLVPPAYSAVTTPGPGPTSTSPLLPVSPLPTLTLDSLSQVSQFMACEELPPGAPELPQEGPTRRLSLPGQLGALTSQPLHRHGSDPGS

| Structure (SMILES) | hERG current change (%, negative = inhibition) at 1uM [%] |
| --- | --- |
| O=S(=O)(Oc1ccccc1C(=S)N1CCOCC1)c1ccc(Cl)cc1 | 10.3 |
| CCN1CCN(C(c2cccc(OC)c2)c2sc3nc(C)nn3c2O)CC1 (centres unmarked) | 5.48 |
| O=C(O)Cn1cc(/C=N/NC(=O)c2cc3cc(Br)ccc3o2)c2ccccc21 | 7 |
| COC(=O)[C@]1(C)C[C@H]1[C@H](NP(=O)(c1ccccc1)c1ccccc1)c1ccccc1 | 7.6 |
| CCCOC(=O)c1ccc(OCC(O)CN2CCN(C(=O)c3ccccc3)CC2)cc1.Cl (centres unmarked) | -19.5 |
| Cc1ccccc1N1CCN(C2CCCN(C(=O)c3noc4c3CCCC4)C2)CC1 (centres unmarked) | -17.7 |
| COCC(C)NS(=O)(=O)c1ccc(C)cc1 (centres unmarked) | 7.26 |
| OCc1cn(-c2ccccc2)nc1-c1ccc(-c2nn(-c3ccccc3)cc2CO)cc1 | 15 |
| CCCCN(C1CCS(=O)(=O)C1)S(=O)(=O)c1ccc(OC)c(OC)c1 (centres unmarked) | 10.9 |
| CN(C)c1ccc(C2C3=C(CCCC3=O)OC3=C2C(=O)CCC3)cc1 | 13.5 |
| O=C(NC(=S)Nc1cc(S(=O)(=O)N2CCOCC2)ccc1N1CCOCC1)c1ccco1 | 0.416 |
| CCCOP(=O)(c1ccc(N(C)C)cc1)C(O)c1ccccc1OC (centres unmarked) | 11.6 |
| Cn1cccc1C(=O)OCC(=O)NC1CCS(=O)(=O)C1 (centres unmarked) | 4.52 |
| CC(C)CCNC(=O)C(=O)NC1CCCC1 | 5.33 |
| Cc1cc(=O)oc2cc(OC(C)C(=O)Nc3ccc(N4CCOCC4)cc3)ccc12 (centres unmarked) | 2.41 |
| COc1ccccc1C(=O)NNC(=O)c1ccc(C)cc1 | 6.68 |
| Nc1cc(-c2ccc(Cl)cc2)nn1S(=O)(=O)c1cccc2nsnc12 | 8.97 |
| CCCCC[C@H]1CN(Cc2ccc(OC)cc2)C(=O)[C@@H]1CC(=O)NCc1ccccc1 | 4.82 |
| CC(=O)Nc1ccc(NC(=O)Nc2ccc(C)c(C)c2)cc1 | -4.99 |
| Cc1ccc(NC(=O)[C@@H]2CCCN2C(=O)c2cccs2)cc1S(=O)(=O)N1CCCCC1 | 8.35 |
| Cc1ccccc1N(CC(=O)NCc1ccc2c(c1)OCO2)C(=O)CCC(=O)Nc1ccccn1 | 6.43 |
| CCCc1cc2c(=O)n(NC(=O)c3nn(C)cc3[N+](=O)[O-])c(C)nc2s1 | 19 |

| Structure (SMILES) | hERG current change (%, negative = inhibition) at 1uM [%] |
| --- | --- |
| COc1cccc(-c2noc(C3CCCN(C(=O)CC(C)(C)C)C3)n2)c1 (centres unmarked) | 4.73 |
| COc1cc(/C=N/Nc2nc(C)cc(C)n2)ccc1OC(=O)c1ccco1 | 6.23 |
| Cc1cc(=O)oc2cc(OC(=O)CCCCCN3C(=O)c4ccccc4C3=O)ccc12 | 9.37 |
| COC(=O)CN(c1ccc(C)cc1)S(=O)(=O)c1ccc(F)cc1 | 0.42 |
| O=C(COC(=O)CCOc1ccccc1)Nc1ccc(Cl)cn1 | 5.03 |
| COc1ccc(N(CC(=O)NCc2ccco2)S(=O)(=O)c2ccc(C)cc2)cc1OC | 11.8 |
| O=C(COC(=O)C1CCN(c2ccc(C(F)(F)F)cn2)CC1)c1cccc(Br)c1 | 21.3 |
| CCc1nc2cccnc2n1-c1ccc(CC(=O)O)cc1 | 13.3 |
| Cc1ccc(-c2csc(NC(=O)CSc3nc4ccccc4o3)n2)cc1 | 9.89 |
| O=C(CSc1ncn[nH]1)Nc1ccc2c(c1)OCCO2 | -23.2 |
| CCC(=Nc1cccc(C(F)(F)F)c1)c1c(O)n(C)c(=O)n(C)c1=O | 8.92 |
| NS(=O)(=O)c1ccc(NN=C2CCCCC2)c([N+](=O)[O-])c1 | 7.06 |
| O=C(COC(=O)CCC(=O)c1cccs1)Nc1cccc(S(=O)(=O)N2CCOCC2)c1 | 1.17 |
| CCNc1nc(SCc2ccccc2)nc(N2CCOCC2)n1 | 6.9 |
| O=C(c1cccs1)N1N=C(c2ccc(O)cc2)CC1c1ccccc1 (centres unmarked) | 11.4 |
| O=C(COC(=O)C12CC3CC(CC(C3)C1)C2)NCCc1ccccc1 | -0.192 |
| O=C(Nc1nc2ccc(F)cc2s1)c1cccs1 | 5.29 |
| Cc1ccc(-c2cc(C(=O)NCc3ccccn3)no2)cc1 | 6.43 |
| CCOC(=O)c1ccc(NCc2ccc(N(C)C)cc2)cc1 | 9.37 |
| CCOc1ccc(OCC(=O)OCC(=O)N(CC(C)C)c2c(N)n(Cc3ccccc3)c(=O)[nH]c2=O)cc1 | 5.08 |
| Cc1ccc(-c2cc(-c3ccc(C)cc3)[n+](-c3ccc(C(=O)O)cc3)c(-c3ccc(C)cc3)c2)cc1.[O-][Cl+3]([O-])([O-])[O-] | 17.7 |
| O=C1CCCCC1 | 9.22 |

| Structure (SMILES) | hERG current change (%, negative = inhibition) at 1uM [%] |
| --- | --- |
| COc1cc2c(cc1NC(=O)c1ccccc1F)CCCC2 | 14.9 |
| CNc1cc([N+](=O)[O-])ccc1N/C=C/C(=O)c1ccc2c(c1)OCO2 | 11.7 |
| CCCCN1C(=O)c2cccc3cc(O)cc(c23)C1=O | 3.95 |
| Cl.O=C(CCN1CCC(c2ccccc2)C1)c1ccccc1 (centres unmarked) | -22.8 |
| CN(C)c1ccc(/C=N/NC(=O)CCCO)cc1 | 12.6 |
| NS(=O)(=O)c1cc2c(cc1Cl)NC(c1ccccc1OCC(=O)O)NS2(=O)=O (centres unmarked) | 16.8 |
| O=C(CCO)c1ccc(O)cc1 | 17.1 |
| CCn1c2ccccc2c2cc(NC(=O)CC(C)=O)ccc21 | 12.6 |
| O=C(Nc1cccc(S(=O)(=O)N2CCCC2)c1)c1cccnc1 | 10.7 |
| CC(NC(=O)Cc1ccsc1)c1ccc(S(N)(=O)=O)cc1 (centres unmarked) | 11.7 |
| COc1ccc(/C=N/NC(=O)c2ccc(OC)c(OC)c2)cc1COc1c(F)c(F)c(F)c(F)c1F | 13.4 |
| C/C(=N\O)C(C)(C)NC(=O)Nc1ccc(Cl)cc1 | 8.92 |
| COc1cc(/C=N/Nc2ccc(Cl)cc2)ccc1OC(=O)c1cccs1.Cl | 8.87 |
| O=C(N/C(=C/c1ccc(Br)cc1)c1nc2ccccc2[nH]1)c1ccco1 | 4.61 |
| CC12C=CC3(CN(Cc4ccccc4)C(=O)C3C1C(=O)NC1CC1)O2 (centres unmarked) | 14.3 |
| O=C(NCCCN1CCOCC1)c1cc2ccccc2oc1=O | -8.41 |
| NC(=O)CSc1nc2ccccc2n1Cc1ccccc1F | 1.8 |
| CC(C)N(C(=O)Cn1cc(S(=O)(=O)CC(=O)N2CCOCC2)c2ccccc21)C(C)C | -0.709 |
| Cc1ccc(C2C(C(=O)c3ccco3)=C(O)C(=O)N2c2nnc(C)s2)cc1 (centres unmarked) | 6.73 |
| CC1=C(C(=O)Nc2ccc(Cl)cc2)C(c2cccs2)n2nnnc2N1 (centres unmarked) | -13.9 |
| Cc1cccc(NC(=O)CCCn2c(=S)[nH]c3ccccc3c2=O)c1 | 6.15 |
| COc1ccccc1NS(=O)(=O)c1ccc(C(=O)OCC(=O)NCc2ccco2)cc1 | 2.97 |

| Structure (SMILES) | hERG current change (%, negative = inhibition) at 1uM [%] |
| --- | --- |
| Cc1ccccc1CN1CCCOCCS1(=O)=O | 1.17 |
| COc1ccccc1N1CCN(C2CCCN(Cc3c(F)cccc3F)C2)CC1 (centres unmarked) | -1.95 |
| COc1cc(S(=O)(=O)N2CCOCC2)ccc1NC(=O)c1cc2c(s1)CCC2 | 3.78 |
| Cn1c(=O)c2c(nc(CN3CCc4ccccc4C3)n2Cc2cccc(Cl)c2)n(C)c1=O | -0.691 |
| C=C1C(=O)O[C@@H]2C[C@@H](C)[C@@H]3C=CC(=O)[C@@]3(C)[C@@H](O)[C@H]12 | 14.8 |
| COc1cccc(NC(=S)N2CCN(S(=O)(=O)c3ccccc3)CC2)c1 | 13.1 |
| COC(=O)c1ccccc1NC(=O)c1c(Br)cnn1C | 8.01 |
| Br.COc1ccc(-c2csc(=NCCO)n2-c2ccccc2)cc1 | 9.52 |
| CCn1cc(C(=O)NCCC(C)C)c(=O)c2cc(S(=O)(=O)N3CCCCC3)ccc21 | 6.52 |
| COc1cc(/C=C/C(=O)O)cc(S(=O)(=O)Nc2ccc(F)cc2)c1OC | 14.4 |
| COc1ccc(Br)cc1CNc1ccc(S(N)(=O)=O)cc1 | 6.29 |
| COc1cccc(OC)c1C(=O)Nc1cc2c(cc1N1CCOCC1)n(C)c(=O)n2C | 12.5 |
| Cc1cccc(-n2c(SCC(=O)N3CCCC3)nc3n[nH]c(C)c3c2=N)c1 | -2.81 |
| CC1(C)Cc2c(sc3nc(-c4ccccc4)oc(=O)c23)CO1 | 4.22 |
| COC(=O)C1=C(c2ccc(-c3ccccc3)c(F)c2)C[C@@H]2CC[C@H]1N2C(=O)NC1CC1 | -4.48 |
| COc1cccc(-c2cc(C(=O)N3CC4(C)CC3CC(C)(C)C4)no2)c1 (centres unmarked) | -2.6 |
| O=C(Cn1nc(-c2ccc(Cl)cc2)c2ccccc2c1=O)Nc1cccnc1 | 4.61 |
| O=C(CCN1C(=O)/C(=C/c2ccccc2)SC1=S)NNC(=O)c1cccnc1 | 17.5 |
| COc1ccc(-n2nnnc2SCC(=O)Nc2ccccc2N2CCOCC2)cc1 | -6.62 |
| COc1ccc2[nH]cc(CCNC(=O)C3CC(=O)N(c4ccc(Cl)cc4)C3)c2c1 (centres unmarked) | 11.1 |
